From the supplement of paper PMC12217912 come the findings set out here.

Sequences and labels used below:
B1: TEV protease; numbered along this chain (parent)
chain: MGESLFKGPRDYNPISSSICHLTNESDGHTTSLYGIGFGPFIITNKHLFRRNNGTLVVQSLHGVFKVKDTTTLQQHLVDGRDMIIIRMPKDFPPFPQKLKFREPQREERICLVTTNFQTKSMSSMVSDTSCTFPSGDGIFWKHWIQTKDGQCGSPLVSTRDGFIVGIHSASNFTNTNNYFTSVPKNFMELLTNQEAQQWVSGWRLNADSVLWGGHKVFMVKPEEPFQPVKEATQL

The other results are listed elsewhere or left out. Sequences were assembled here from the parent chain. Values near 0.05 are background.

Variants of B1 are the subject of the assay. Description: raw area under fraction-flipped curve 0-4 h after induction (AUC4h, not background-subtracted), DNA-recorder readout of cleavage of the substrate (dimensionless); higher = more cleavage of the substrate by the protease variant. To be noted: temperature: 34 °C; time window: 0-4 h after rhamnose induction. How it is done: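 In vivo DNA recorder in E. coli TOP10(DE3) ΔrhaA at 34 °C. Each TEVp single-site mutant (parent TEVp 0) is paired with a single-site variant of the 7-mer TEVs (canonical ENLYFQ|S). The substrate sits between flexible linkers in a Bxb1-sfGFP-TEVs-SsrA fusion, so cleavage stabilises Bxb1 and speeds flipping of a recombination array, read by NGS. The value is the raw area under the fraction-flipped curve over 0-4 h after rhamnose induction (AUC4h), with ≥20 reads per time point. It is not background-subtracted; inactive controls average about 0.047.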
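Further: Bxb1 expression induced with 0.2% (w/v) L-rhamnose at OD600 near 0.5, cultures sampled hourly, flipped fraction per protease–substrate barcode pair counted by paired-end Illumina sequencing.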

Regarding MGESLFKGPRDYNPISSSICHLTNESDGHTTSLYGIGFGPFIITNKHLFRRNNGTLVVQSLHGVFKVKDTTTLQQHLVDGRDMIIIRMPKDFPPFPQKLKFRNPQREERICLVTTNFQTKSMSSMVSDTSCTFPSGDGIFWKHWIQTKDGQCGSPLVSTRDGFIVGIHSASNFTNTNNYFTSVPKNFMELLTNQEAQQWVSGWRLNADSVLWGGHKVFMVKPEEPFQPVKEATQL [E103N], the “area with substrate ENLYAQS” value is 0.0786, the “area with substrate ENLYCQS” value worked out at 0.073, the “area with substrate ENLYDQS” value turned out to be 0.0613 and the “area with substrate ENLYHQS” value was determined as 0.0894. Moreover, the “area with substrate ENLYQQS” value was 0.0812 and the “area with substrate ENLYYQS” value worked out at 0.0654.

Consider MGESLFKGPRDYNPISSSICHLTNESDGHTTSLYGIGFGPFIITNKHLFRRNNGTLVVQSLHGVFKVKDTTTLQQHLVDGRDMIIIRMPKDFEPFPQKLKFREPQREERICLVTTNFQTKSMSSMVSDTSCTFPSGDGIFWKHWIQTKDGQCGSPLVSTRDGFIVGIHSASNFTNTNNYFTSVPKNFMELLTNQEAQQWVSGWRLNADSVLWGGHKVFMVKPEEPFQPVKEATQL [P93E], for which the “area with substrate ENLYAQS” value was determined as 0.093, the “area with substrate ENLYDQS” value was found to be 0.0454, the “area with substrate ENLYGQS” value came to 0.0449 and the “area with substrate ENLYHQS” value was 0.0865. Besides, the “area with substrate ENLYMQS” value stood at 0.103, the “area with substrate ENLYNQS” value was 0.0779, the “area with substrate ENLYPQS” value was 0.098 and the “area with substrate ENLYQQS” value worked out at 0.0555. Moreover, the “area with substrate ENLYRQS” value amounted to 0.0648, the “area with substrate ENLYSQS” value stood at 0.0713 and the “area with substrate ENLYWQS” value amounted to 0.101.

MGESLFKGPRDYNPISSSICHLTNESDGHTTSLYGIGFGPFIITNKHLFRRNNGTLVVQSLHGVFKVKDTTTLQQHLVDGRDMISIRMPKDFPPFPQKLKFREPQREERICLVTTNFQTKSMSSMVSDTSCTFPSGDGIFWKHWIQTKDGQCGSPLVSTRDGFIVGIHSASNFTNTNNYFTSVPKNFMELLTNQEAQQWVSGWRLNADSVLWGGHKVFMVKPEEPFQPVKEATQL [I85S]: the “area with substrate ENLYAQS” value was 0.0667, the “area with substrate ENLYEQS” value amounted to 0.0466, the “area with substrate ENLYGQS” value came out at 0.0541 and the “area with substrate ENLYHQS” value is 0.0636. The “area with substrate ENLYKQS” value was determined as 0.0582, the “area with substrate ENLYNQS” value came out at 0.0712, the “area with substrate ENLYPQS” value came out at 0.0533 and the “area with substrate ENLYQQS” value worked out at 0.0589. Further, the “area with substrate ENLYRQS” value amounted to 0.0418, the “area with substrate ENLYSQS” value was 0.0584, the “area with substrate ENLYTQS” value amounted to 0.0554 and the “area with substrate ENLYVQS” value came to 0.0461. Moreover, the “area with substrate ENLYWQS” value turned out to be 0.0502 and the “area with substrate ENLYYQS” value came out at 0.0402.

Regarding MGESLFKGPRDYNPISSSICHLTNESDGHTTSLYGIGFGPFIITNKHLFRRNNGTLVVQSLHGVFKVKDTTTLQQHLVDGRDMIIIRMPKDSPPFPQKLKFREPQREERICLVTTNFQTKSMSSMVSDTSCTFPSGDGIFWKHWIQTKDGQCGSPLVSTRDGFIVGIHSASNFTNTNNYFTSVPKNFMELLTNQEAQQWVSGWRLNADSVLWGGHKVFMVKPEEPFQPVKEATQL [F92S], the “area with substrate ENLYAQS” value turned out to be 0.0888, the “area with substrate ENLYCQS” value turned out to be 0.0711, the “area with substrate ENLYDQS” value was 0.0668 and the “area with substrate ENLYEQS” value amounted to 0.0591. Moreover, the “area with substrate ENLYGQS” value stood at 0.0696, the “area with substrate ENLYHQS” value came out at 0.0454, the “area with substrate ENLYIQS” value came to 0.114 and the “area with substrate ENLYKQS” value was found to be 0.0616. Also, the “area with substrate ENLYMQS” value is 0.0554, the “area with substrate ENLYNQS” value turned out to be 0.0717, the “area with substrate ENLYRQS” value was 0.0731 and the “area with substrate ENLYSQS” value turned out to be 0.0627. Besides, the “area with substrate ENLYWQS” value was 0.0745 and the “area with substrate ENLYYQS” value came out at 0.0444.

Turning to MGESLFKGPRDYNPISSSICHLTNESDGHTTSLYGIGFGPFIITNKHLFRRNNGTLVVQSLHGVFKVKDTTTLQQHLVDGRDMIIIRMPTDFPPFPQKLKFREPQREERICLVTTNFQTKSMSSMVSDTSCTFPSGDGIFWKHWIQTKDGQCGSPLVSTRDGFIVGIHSASNFTNTNNYFTSVPKNFMELLTNQEAQQWVSGWRLNADSVLWGGHKVFMVKPEEPFQPVKEATQL [K90T], the “area with substrate ENLYAQS” value was determined as 0.0897, the “area with substrate ENLYCQS” value worked out at 0.0918, the “area with substrate ENLYDQS” value amounted to 0.068 and the “area with substrate ENLYEQS” value stood at 0.0811. In addition, the “area with substrate ENLYHQS” value came out at 0.0751, the “area with substrate ENLYKQS” value was found to be 0.063, the “area with substrate ENLYMQS” value worked out at 0.0732 and the “area with substrate ENLYNQS” value was 0.0654. For the same variant, the “area with substrate ENLYPQS” value came out at 0.0693, the “area with substrate ENLYQQS” value is 0.08, the “area with substrate ENLYTQS” value was 0.143 and the “area with substrate ENLYVQS” value turned out to be 0.103. Besides, the “area with substrate ENLYYQS” value came out at 0.0517.

Turning to MGESLFKGPRDYNPISSSICHLTNESDGHTTSLYGIGFGPFIITNKHLFRRNNGTLVVQSLHGVFKVKDTTTLQQHLVDGRDMIIIRMPKDFPPFDQKLKFREPQREERICLVTTNFQTKSMSSMVSDTSCTFPSGDGIFWKHWIQTKDGQCGSPLVSTRDGFIVGIHSASNFTNTNNYFTSVPKNFMELLTNQEAQQWVSGWRLNADSVLWGGHKVFMVKPEEPFQPVKEATQL [P96D], the “area with substrate ENLYAQS” value came out at 0.0709, the “area with substrate ENLYEQS” value stood at 0.0696, the “area with substrate ENLYHQS” value stood at 0.101 and the “area with substrate ENLYIQS” value is 0.133. In addition, the “area with substrate ENLYKQS” value is 0.0602, the “area with substrate ENLYLQS” value came out at 0.084, the “area with substrate ENLYMQS” value worked out at 0.115 and the “area with substrate ENLYPQS” value was determined as 0.0473. The “area with substrate ENLYRQS” value worked out at 0.0797, the “area with substrate ENLYSQS” value was 0.0638 and the “area with substrate ENLYVQS” value was determined as 0.137.

For the variant MGESLFKGPRDYNPISSSICHLTNESDGHTTSLYGIGFGPFIITNKHLFRRNNGTLVVQSLHGVFKVKDTTTLQQHLVDGRDMIIIRMPKDFPPFPQKLKPREPQREERICLVTTNFQTKSMSSMVSDTSCTFPSGDGIFWKHWIQTKDGQCGSPLVSTRDGFIVGIHSASNFTNTNNYFTSVPKNFMELLTNQEAQQWVSGWRLNADSVLWGGHKVFMVKPEEPFQPVKEATQL [F101P], the “area with substrate ENLYAQS” value was found to be 0.0625, the “area with substrate ENLYEQS” value is 0.0591, the “area with substrate ENLYGQS” value was 0.044 and the “area with substrate ENLYKQS” value worked out at 0.0603. Besides, the “area with substrate ENLYNQS” value is 0.047, the “area with substrate ENLYPQS” value was found to be 0.0469, the “area with substrate ENLYRQS” value was determined as 0.075 and the “area with substrate ENLYVQS” value was 0.0512. Besides, the “area with substrate ENLYWQS” value is 0.0604.

MGESLFKGPRDYNPISSSICHLTNESDGHTTSLYGIGFGPFIITNKHLFRRNNGTLVVQSLHGVFKVKDTTTLQQHLVDGRDMIIIRMPKDFPPFPQKLKMREPQREERICLVTTNFQTKSMSSMVSDTSCTFPSGDGIFWKHWIQTKDGQCGSPLVSTRDGFIVGIHSASNFTNTNNYFTSVPKNFMELLTNQEAQQWVSGWRLNADSVLWGGHKVFMVKPEEPFQPVKEATQL [F101M]: the “area with substrate ENLYAQS” value was 0.108, the “area with substrate ENLYCQS” value was 0.0788, the “area with substrate ENLYDQS” value is 0.057 and the “area with substrate ENLYEQS” value came out at 0.0587. Further, the “area with substrate ENLYHQS” value was found to be 0.0603, the “area with substrate ENLYIQS” value is 0.108, the “area with substrate ENLYKQS” value was 0.0766 and the “area with substrate ENLYMQS” value worked out at 0.0742. In addition, the “area with substrate ENLYNQS” value was 0.06, the “area with substrate ENLYRQS” value turned out to be 0.0529, the “area with substrate ENLYSQS” value came out at 0.0549 and the “area with substrate ENLYVQS” value came to 0.11. Moreover, the “area with substrate ENLYYQS” value was determined as 0.0468.

MGESLFKGPRDYNPISSSICHLTNESDGHTTSLYGIGFGPFIITNKHLFRRNNGTLVVQSLHGVFKVKDTTTLQQHLVDGRDMIIIRMPKGFPPFPQKLKFREPQREERICLVTTNFQTKSMSSMVSDTSCTFPSGDGIFWKHWIQTKDGQCGSPLVSTRDGFIVGIHSASNFTNTNNYFTSVPKNFMELLTNQEAQQWVSGWRLNADSVLWGGHKVFMVKPEEPFQPVKEATQL [D91G]: the “area with substrate ENLYAQS” value amounted to 0.0764, the “area with substrate ENLYCQS” value was 0.0999, the “area with substrate ENLYGQS” value came to 0.0566 and the “area with substrate ENLYHQS” value was found to be 0.0675. In addition, the “area with substrate ENLYKQS” value turned out to be 0.0484, the “area with substrate ENLYMQS” value was 0.0825, the “area with substrate ENLYNQS” value was determined as 0.0873 and the “area with substrate ENLYPQS” value came out at 0.0795. Further, the “area with substrate ENLYQQS” value came out at 0.0742, the “area with substrate ENLYSQS” value worked out at 0.0519, the “area with substrate ENLYVQS” value was determined as 0.0904 and the “area with substrate ENLYWQS” value was 0.113. Further, the “area with substrate ENLYYQS” value was 0.0767.

In the case of MGESLFKGPRDYNPISSSICHLTNESDGHTTSLYGIGFGPFIITNKHLFRRNNGTLVVQSLHGVFKVKDTTTLQQHLVDGRDMIIIRMKKDFPPFPQKLKFREPQREERICLVTTNFQTKSMSSMVSDTSCTFPSGDGIFWKHWIQTKDGQCGSPLVSTRDGFIVGIHSASNFTNTNNYFTSVPKNFMELLTNQEAQQWVSGWRLNADSVLWGGHKVFMVKPEEPFQPVKEATQL [P89K], the “area with substrate ENLYAQS” value worked out at 0.0679, the “area with substrate ENLYDQS” value is 0.0556, the “area with substrate ENLYEQS” value was 0.0526 and the “area with substrate ENLYHQS” value amounted to 0.0473. The “area with substrate ENLYIQS” value is 0.131, the “area with substrate ENLYSQS” value amounted to 0.0783 and the “area with substrate ENLYVQS” value stood at 0.124.
